Measured values: the supplement of paper PMC10600219
Where a name gives a salt, the structure may show the parent alone. Whole data set: some 2,800 compounds, median “cell viability relative to vehicle” near 1.1, cut for the lowest 2% near 0.19. Some of the results follow.

Tested on: NCI-H2228 parental
Test: cell viability relative to vehicle (fraction of vehicle); NCI-H2228 is an ALK-positive lung cancer line and DTP means drug-tolerant persister; higher = less growth inhibition
Details: 100 nM; treatment time 6 days
How it was run: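 Each value is viability relative to vehicle-treated cells, measured as ATP with the CellTiter-Glo 3D Cell Viability Assay. Parental NCI-H2228 cells and drug-tolerant persisters (1000 nM targeted drug, 13 days) in 384-well plates received the 3114-agent TargetMol anti-cancer compound library at 100 nM, or DMSO, and were read 6 days later.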

Row | SMILES | cell viability
1 | CC(C)=CCC[C@](C)(O)[C@H]1CC[C@]2(C)[C@@H]1[C@H](O)C[C@@H]1[C@@]3(C)CC[C@H](O)C(C)(C)[C@@H]3[C@@H](O[C@@H]3O[C@H](CO)[C@@H](O)[C@H](O)[C@H]3O)C[C@]12C [Ginsenoside Rh1] | 1.07
2 | C[C@@H]1CN(Cc2ccc(F)cc2)CCN1C(=O)COc1ccc(Cl)cc1NC(N)=O | 1.19
3 | CC(C)(C)NCC(O)c1ccccc1Cl (stereo not given) [Tulobuterol hydrochloride] | 1.04
4 | Cc1cccc([C@H](C)c2c[nH]cn2)c1C [Dexmedetomidine] | 1.25
5 | Cc1cccc([C@H](C)c2c[nH]cn2)c1C [Dexmedetomidine HCl] | 1.04
6 | C#C[C@]1(O)C=C[C@H]2[C@@H]3CCC4=CC(=O)CC[C@@H]4[C@H]3CC[C@@]21CC [Gestodene] | 1.18
7 | C[C@@H]1CCC=C2C(=O)C[C@H]3OOC(C)(C)[C@H]3[C@]21C [Nardosinone] | 0.987
8 | CC(=O)OC12COC1CC(O)C1(C)C(=O)C(O)C3=C(C)C(O)CC(O)(C(OC(=O)c4ccccc4)C21)C3(C)C (stereo not given) [10-Deacetylbaccatin III] | 1.13
9 | C[N+]12CCC(CC1)C(OC(=O)C(O)(c1ccccc1)c1ccccc1)C2 (stereo not given) [Clidinium bromide] | 1.12
10 | CO[C@]12C[C@@H](COC(=O)c3cncc(Br)c3)CN(C)[C@@H]1Cc1cn(C)c3cccc2c13 [Nicergoline] | 0.878
11 | C[C@H]1C(=O)O[C@@H]2CCN3CC=C(COC(=O)[C@](C)(O)[C@]1(C)O)[C@H]23 [Monocrotaline] | 1.18
12 | CC1=C[C@H]2[C@@]3(O)[C@H](C)[C@@H](O)[C@]4(O)[C@H]([C@@H]3C=C(CO)C[C@]2(O)C1=O)C4(C)C [Phorbol] | 0.966
13 | N#C/C=C1/C=C[C@@H](O)[C@H](O)[C@H]1O[C@@H]1O[C@H](CO)[C@@H](O)[C@H](O)[C@H]1O [Griffonin] | 1.11
14 | CC(C)c1c(CN(C)C(C)Cc2ccccc2)n(C)n(-c2ccccc2)c1=O (stereo not given) [Famprofazone] | 1.1
15 | O=P1(NCCCl)OCCCN1CCCl (stereo not given) [Ifosfamide] | 1.1
16 | O=C1CCC[C@@H]2[C@H]3CCCN4CCC[C@@H](CN12)[C@@H]34 [(+)-Matrine] | 0.953
17 | Cc1cccc(C)c1NC1=NCCCS1 [Xylazine hydrochloride] | 0.965
18 | CN1C(=O)COc2c(C(=O)NC3CN4CCC3CC4)cc(Cl)cc21 (stereo not given) [Azasetron hydrochloride] | 1.38
19 | Cc1cc(SCc2sc(-c3ccc(C(F)(F)F)c(F)c3)nc2C)ccc1OCC(=O)O | 0.971
20 | O=C(O)C1C2CCC(O2)C1C(=O)O (stereo not given) [Sodium Demethylcantharidate] | 0.852
21 | CC(C)(C)[C@]1(O)CC2OC(=O)CC23C(=O)OC2OC(=O)[C@H](O)C231 (stereo not given in full) [Bilobalide] | 0.975
22 | Clc1ccccc1C(c1ccccc1)(c1ccccc1)n1cccn1 | 0.96
23 | O=C(N[C@H]1CN2CCC1CC2)c1cc2cccc(Cl)c2s1 [EVP-6124 hydrochloride] | 1.07
24 | CC(=O)O[C@H]1[C@H]2O[C@]23[C@@H]2CC[C@@H]4C[C@@H](O)CC[C@]4(C)[C@H]2CC[C@]3(C)[C@H]1c1ccc(=O)oc1 [Cinobufagin] | 0.439

Row | SMILES | cell viability
25 | NCCc1c[nH]c2ccccc12 [Tryptamine] | 1.01
26 | Clc1ccc(C(OCCN2CCCCC2)c2ccccc2)cc1 (stereo not given) [Cloperastine hydrochloride] | 1.15
27 | CCCC(C)(C)c1ccc2c(c1)OC(C)(C)[C@@H]1CC=C(C)C[C@@H]21 | 0.905
28 | CCn1cc(C(=O)O)c(=O)c2cc3c(cc21)OCO3 [Oxolinic acid] | 0.986
29 | C[C@]12CC[C@H](O)C[C@@H]1CC[C@@H]1[C@@H]2CC[C@]2(C)C(=O)CC[C@@H]12 [Epiandrosterone] | 0.817
30 | C[N+]1(C)[C@@H]2C[C@@H](OC(=O)[C@H](CO)c3ccccc3)C[C@H]1[C@@H]1O[C@@H]12 [Methscopolamine] | 0.915
31 | CN(C)C(=O)Oc1cc(OC(=O)N(C)C)cc(C(O)CNC(C)(C)C)c1 (stereo not given) [Bambuterol hydrochloride] | 1.31
32 | NCCc1ccc(O)cc1 [Tyramine] | 1.09
33 | CCN(C)C(=O)Oc1cccc([C@H](C)N(C)C)c1 [Rivastigmine tartrate] | 1.11
34 | CCN(C)C(=O)Oc1cccc([C@H](C)N(C)C)c1 [Rivastigmine] | 0.986
35 | CC1=C[C@]23C(=O)[C@@H](C=C(CO)[C@@H](O)[C@]2(O)[C@H]1O)[C@H]1[C@@H](C[C@H]3C)C1(C)C [Ingenol] | 1.08
36 | CCC1(c2ccc(N)cc2)CCC(=O)NC1=O (stereo not given) [Aminoglutethimide] | 0.974
37 | O=C(/C=C/c1ccccc1)OC[C@H]1O[C@@H](O[C@@H]2OC=C[C@H]3[C@H](O)[C@@H]4O[C@]4(CO)[C@@H]23)[C@H](O)[C@@H](O)[C@@H]1O [Picroside I] | 1.11
38 | C=C1CC[C@H]2[C@@H](/C=C(\C)C(=O)[C@@]3(O)C[C@H](C)[C@H](O)[C@@H]3[C@@H]1O)C2(C)C [Lathyrol] | 1.09
39 | Cc1c(Cl)cccc1S(=O)(=O)Nc1nc(CC(=O)N2CCN(C)CC2)cs1 | 0.909
40 | COc1ccc2c(c[n+](C)c3c4cc5c(cc4ccc23)OCO5)c1OC [Chelerythrine] | 0.999
41 | COc1ccc2c(c[n+](C)c3c4cc5c(cc4ccc23)OCO5)c1OC [Chelerythrine chloride] | 1.13
42 | O=C1CCC[C@@H]2[C@H]3CCCN4CCC[C@H](CN12)[C@@H]34 [Sophoridine] | 0.999
43 | O=c1[nH]c2ccccc2n1C1CCN(Cc2ccc(-c3[nH]c4cc5ncnc5cc4nc3-c3ccccc3)cc2)CC1 [AKT inhibitor VIII] | 0.979
44 | C[C@H](Nc1ncnc2[nH]cnc12)c1nc2ccc(F)cc2c(=O)n1-c1ccccc1 [Acalisib] | 1.02
45 | COc1cc(C2OCC3C(c4cc(OC)c(O[C@@H]5O[C@H](CO)[C@@H](O)[C@H](O)[C@H]5O)c(OC)c4)OCC23)cc(OC)c1O[C@H]1O[C@@H](CO)[C@H](O)[C@@H](O)[C@@H]1O (stereo not given in full) [Eleutheroside E] | 1.14
46 | C[C@](O)(COc1ccc(C#N)cc1)C(=O)Nc1ccc(C#N)c(C(F)(F)F)c1 [Ostarine] | 0.538
47 | COc1ccc(CCN2CCC(Nc3nc4ccccc4n3Cc3ccc(F)cc3)CC2)cc1 [Astemizole] | 1.13
48 | CC(=O)O[C@H]1C[C@H](O[C@H]2[C@@H](O)C[C@H](O[C@H]3[C@@H](O)C[C@H](O[C@H]4CC[C@@]5(C)[C@H](CC[C@@H]6[C@@H]5C[C@@H](O)[C@]5(C)[C@@H](C7=CC(=O)OC7)CC[C@]65O)C4)O[C@@H]3C)O[C@@H]2C)O[C@H](C)[C@H]1O[C@@H]1O[C@H](CO)[C@@H](O)[C@H](O)[C@H]1O [Lanatoside C] | 0.427

Row | SMILES | cell viability
49 | Cc1c([C@H](C)[C@@H]2NC[C@@H](C)C[C@H]2O)ccc2c1C[C@H]1[C@H]2CC=C2C[C@@H](O)CC[C@@]21C [Veratramine] | 1.12
50 | CC(=O)Nc1ccc(OC[C@](C)(O)C(=O)Nc2ccc([N+](=O)[O-])c(C(F)(F)F)c2)cc1 [Andarine] | 1.04
51 | CC(C)[C@H](N)C(=O)N1CCC[C@H]1B(O)O [Talabostat mesylate] | 0.987
52 | C=C(C)[C@H]1Cc2c(ccc3c2O[C@@H]2COc4cc(OC)c(OC)cc4[C@@H]2C3=O)O1 [Rotenone] | 0.5
53 | COC(=O)C1=CCCN(C)C1 [Arecoline HBr] | 1.04
54 | CNCC(=O)c1ccc(O)c(O)c1 [Adrenalone hydrochloride] | 1.12
55 | C=CCCCCCCCCC(=O)O[C@H]1CC[C@H]2[C@@H]3CCC4=CC(=O)C=C[C@]4(C)[C@H]3CC[C@]12C [Parenabol] | 1.06
56 | N#Cc1c(Oc2cccc(OS(=O)(=O)CCCC(F)(F)F)c2)cccc1C(F)(F)F | 1.01
57 | C[C@]12CC[C@H]3[C@@H](CC[C@@]45O[C@@H]4C(O)=C(C#N)C[C@]35C)[C@@H]1CC[C@@H]2O [Trilostane] | 1.17
58 | Oc1cc(O)cc(/C=C/c2ccc(O)cc2O)c1 [Oxyresveratrol] | 0.982
59 | C=C1C[C@@H]2[C@H](CC[C@]3(C)C(=O)CC[C@@H]23)[C@@]2(C)C=CC(=O)C=C12 [Exemestane] | 1.12
60 | C=C1C2CC3(C1O)C1CC4C5(C)CCC(O)C4(C1N(CC)C5)C3CC2=O (stereo not given) [Napellonine] | 0.91
61 | COc1c(C)c(O)cc2[o+]c(-c3ccccc3)ccc12.[O-][Cl+3]([O-])([O-])[O-] [Dracorhodin perochlorate] | 1.11
62 | CCCCCc1cc(O)cc(O)c1 [Olivetol] | 1.14
63 | Cn1c(CCCCCCC(=O)NO)nc2cc(N(CCCl)CCCl)ccc21 [Minomustine] | 1.12
64 | O=P1(N(CCCl)CCCl)NCCCO1 (stereo not given) [Cyclophosphamide monohydrate] | 1.1
65 | COc1ccc(/C=C2\CCCN=C2c2cccnc2)c(OC)c1 [GTS 21 dihydrochloride] | 1.13
66 | COP(=S)(OC)Oc1ccc(Sc2ccc(OP(=S)(OC)OC)cc2)cc1 [Temephos] | 1.03
67 | C[C@@]1(C(=O)O)CC[C@]2(C)CC[C@]3(C)C4=CC(=O)c5c(cc(O)c(O)c5C=O)[C@]4(C)CC[C@@]3(C)[C@@H]2C1 [Demethylzeylasteral] | 1.07
68 | CN1CCN(c2cccc3[nH]c(=O)oc23)CC1 [Pardoprunox hydrochloride] | 1.2
69 | CN1CCC(C(=O)c2cccc(NC(=O)c3c(F)cc(F)cc3F)n2)CC1 [Lasmiditan] | 0.964
70 | Cc1sc2c(c1C)C(c1ccc(Cl)cc1)=N[C@@H](CC(=O)OC(C)(C)C)c1nnc(C)n1-2 | 0.928
